Measured values reported in PubChem BioAssay AID588855 (National Center for Advancing Translational Sciences (NCATS), 2011).
Hit rate of the full screen: of about 410,000 compounds, about 5,000 (1.2%) were called active. Inconclusive results, whose numbers are uncertain, are shown with a selection of clear calls. The call rests on the fitted dose curve; in most records, active means well fitted inhibition curve with a large enough effect; inconclusive means small, poorly fitted or top-dose-only effect; inactive means no such curve, though single readings can be large or run the other way. Potencies of inconclusive entries are doubtful fits and often do not repeat. Where a structure was tested more than once in an assay, its records may differ in their call.

Assay: qHTS for Inhibitors of TGF-b; further: nearly all actives have a fitted effect of over 65% in size
Conditions: HepG2 CAGA-GFP TGF-b/SMAD3 reporter, GFP fluorescence, 18 h, TGF-beta stimulated, 500 pg/mL final; series mostly up to 46.1 µM
How it was run: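 HEPG2 CAGA-GFP reporter cells (1000/well, DMEM with 1% FBS) received compounds, then recombinant TGF-beta at 500 pg/mL final for 18 hours at 37 degrees C. Per-cell GFP summed per well was normalised to unstimulated and stimulated DMSO controls before curve fitting.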
Potency means the concentration at half of the fitted maximal effect; tags describe the fitted curve by direction and shape.

SMILES	Potency
O=C1[C@H]2[C@@H](c3ccc(F)cc3)N3C(=O)N(c4cccc(Br)c4)C(=O)[C@@]3(Cc3ccccc3)[C@H]2C(=O)N1C1CCCCC1	inactive
O=S1(=O)CCS(=O)(=O)C1c1ccccc1	inconclusive: 22.4 µM [inhibitor, single point]
CCOc1ccc(NC(=O)Cc2c(O)c3ccccc3[nH]c2=O)cc1	inactive
CC(=O)c1ccc(NC(=O)/C(=C\c2ccccc2)NC(=O)c2ccco2)cc1	inactive
O=C(C[n+]1cccc(Br)c1)c1ccc(F)cc1	inactive
CCc1ccc(NC(=O)C2CCCN2S(=O)(=O)c2ccc3nc(-c4ccccc4)[nH]c3c2)cc1 (stereo not drawn)	inconclusive: 25.1 µM [inhibitor, single point]
COc1ccc(CCNc2nc(SCc3ccccc3F)nc3ccccc23)cc1OC	inactive
CC(C)C(=O)N1CCN(c2ccccc2NC(=O)COc2ccc(C3CCCCC3)cc2)CC1	inconclusive: 35.5 µM [inhibitor, single point]
CCOc1ccc2nc3cc(NCc4ccc(OC)cc4)ccc3c(N)c2c1	active: 7.94 µM
CCOC(=O)C(=O)c1csc(NC(=O)COc2ccc(N(C)S(=O)(=O)c3ccc(F)cc3)cc2)n1	inactive
Cc1ccccc1Nc1nc(NCc2ccco2)c2ccccc2n1	inconclusive: 11.2 µM [inhibitor, partial curve, poor fit]
CN(C)S(=O)(=O)c1ccc(C(=O)OCCn2cnc3c2c(=O)n(C)c(=O)n3C)cc1	inactive
CCCCC(CC)CNC(=O)CCCCn1c(=O)[nH]c2ccsc2c1=O (stereo not drawn)	inconclusive: 25.1 µM [inhibitor, partial curve, poor fit]
CC[N+](CC)(CC)CC(=O)Nc1ccc(SC(F)F)cc1	inactive
CC(C)Nc1nc2c(S(=O)(=O)c3cccc(Cl)c3)nnn2c2ccsc12	inactive
COC(=O)c1nnn(CC(=O)Nc2c(C)cccc2C)c1N	inactive
COc1ccc(NC(=O)c2cc(-c3ccc4c(c3)OCO4)on2)cc1OC	inactive
Cc1ccc(Cc2c(-c3ccccc3)nc3ccc(Br)cn23)cc1	inconclusive: 20 µM [inhibitor, single point]
N#CN=c1snc(-c2ccccc2Cl)n1-c1ccccc1Cl	inconclusive: 3.55 µM [inhibitor, full curve]
OC(CNCC1CCCO1)Cn1c2ccc(Cl)cc2c2cc(Cl)ccc21 (stereo not drawn)	inconclusive: 35.5 µM [inhibitor, single point]
COc1ccc(C(=O)N2CCCCC2c2cc(C(=O)Nc3cccc(C#N)c3)no2)cc1 (stereo not drawn)	inactive
CCC(C)Nc1ccc(NC(C)CC)cc1 (stereo not drawn)	active: 11.2 µM
O=C(CCS(=O)(=O)c1ccc(F)cc1)Nc1nc(-c2ccccn2)cs1	inconclusive: 10 µM [inhibitor, partial curve, poor fit]

SMILES	Potency
COc1ccccc1-c1cc(C(=O)N/N=C/c2sccc2C)c2ccccc2n1	inactive
CC(Sc1nc(-c2ccccc2)cs1)C(=O)Nc1ccc(Cl)cn1 (stereo not drawn)	inconclusive: 35.5 µM [inhibitor, single point]
CCCOc1ccc(F)cc1-c1cc(C(=O)Nc2ccc(OC)nc2)[nH]n1	inactive
COc1cc(NC(=O)CCc2c(C)nc3c(-c4ccc(F)cc4)c(C)nn3c2C)cc(OC)c1OC	inactive
Oc1cc2c(cc1C(c1ccc(Cl)c(Cl)c1)N1CCCC1)OCO2 (stereo not drawn)	inconclusive: 35.5 µM [inhibitor, single point]
Cc1ccc(NC2Nc3cc(C)nn3S2)c(C)c1 (stereo not drawn)	inconclusive: 7.08 µM [inhibitor, partial curve, poor fit]
Cc1ccc(C)c(N2CCN(C(=O)CCS(=O)(=O)c3cc(Br)cc4c3N(C(=O)C3CC3)CC4)CC2)c1	inactive
Nc1nc2nc(-c3ccccc3)cc(C(F)(F)F)c2s1	inconclusive: 35.5 µM [inhibitor, partial curve, poor fit]
CCn1nc(C)c(/C=C/C(=O)Nc2ccc(C)cc2C)c1C	inconclusive: 10 µM [inhibitor, partial curve, poor fit]
CCC(=O)N1CCc2cc(CNS(=O)(=O)c3ccc(C(C)C)cc3)ccc21	inconclusive: 14.1 µM [inhibitor, single point]
COC(=O)c1ccc2c(=O)n(CCCCCC(=O)N3CCN(c4cc(C)ccc4C)CC3)c(=O)[nH]c2c1	inconclusive: 5.62 µM [inhibitor, single point]
Cc1nn(-c2ccccc2)c2sc(C(=O)Nc3cccc(Cl)c3)cc12	inconclusive: 35.5 µM [inhibitor, single point]
COc1cc2nc(NCCc3ccccc3)n3nc(-c4cccnc4)nc3c2cc1OC	inactive
CCCCNC(=O)c1cc2n(n1)C(C(F)(F)F)CC(c1ccccc1)N2 (stereo not drawn)	inactive
CCOc1cc(S(=O)(=O)Nc2ccccc2CC)ccc1Cl	inconclusive: 22.4 µM [inhibitor, single point]
Cc1nc2c3ccccc3nc(NNC(=O)CCC(=O)N3CCN(c4cc(Cl)ccc4C)CC3)n2n1	inconclusive: 35.5 µM [inhibitor, single point]
Cc1cccc(Cl)c1NC(=S)NCCc1ccccn1	inconclusive: 3.16 µM [inhibitor, single point]
Cc1cccc(N2CCN(C(=O)C3CCN(S(=O)(=O)c4c(C)noc4/C=C/c4ccccc4F)CC3)CC2C)c1 (stereo not drawn)	inconclusive: 3.55 µM [inhibitor, single point]
COc1cc2c(cc1OC)C1(Nc3c-2c(Cc2ccccc2)nn3-c2ccccc2)C(=O)Nc2ccccc21 (stereo not drawn)	inconclusive: 20 µM [inhibitor, single point]
CCOC(=O)C1(CCOc2ccccc2)CCN(Cc2cnc(C)[nH]2)CC1	inactive
O=c1[nH]c(CSc2nc(-c3ccc(F)cc3)cs2)nc2ccccc12	inactive
CCc1ccccc1NC(=O)c1ccc(Cn2nc(N3CCN(c4ccccc4)CC3)ccc2=O)o1	inconclusive: 12.6 µM [inhibitor, partial curve]
CCOc1ccccc1NC(=O)CCNC(=O)Cn1ccc2ccccc2c1=O	inactive

SMILES	Potency
Cc1nc2c(OCc3ccc(C#N)cc3)cccn2c1N(C)Cc1cccs1	inconclusive: 22.4 µM [inhibitor, single point]
O=C(O)/C(=C\c1ccc(Br)cc1)c1ccc(S(=O)(=O)N2CCCCC2)s1	inactive
CCCn1c2ccccc2c2cnn(CC(=O)N(CC)c3cc(C)ccc3C)c(=O)c21	inconclusive: 31.6 µM [inhibitor, single point]
CCCNC(=O)CSc1c2c(nc3ccc(Cl)cc13)CCCC2	inconclusive: 35.5 µM [inhibitor, single point]
c1ccc(CN2CCN(c3nc(NCc4ccco4)c4ccccc4n3)CC2)cc1	inconclusive: 35.5 µM [inhibitor, single point]
CCCNC(=O)C1(C)CCCN(C(=O)c2cccc(C(F)(F)F)c2)C1 (stereo not drawn)	inconclusive: 5.62 µM [inhibitor, single point]
CCN(CC)S(=O)(=O)c1cc(NC(=O)C2CCN(c3ncnc4sc(C)c(C)c34)CC2)ccc1Cl	inconclusive: 1.26 µM [inhibitor, full curve, poor fit]
CCCCN(C)S(=O)(=O)c1ccc(NC2=NS(=O)(=O)c3ccccc32)cc1	inconclusive: 35.5 µM [inhibitor, partial curve, poor fit]
Cc1cc(Oc2ccc(Cl)cc2)nc(SCC(=O)c2ccccc2)n1	inconclusive: 1.58 µM [inhibitor, single point]
CCOCCCNc1nc(=S)[nH]c2cc(OC)c(OC)cc12	inconclusive: 3.16 µM [inhibitor, single point]
CCN(CC(=O)Nc1c(F)cccc1F)C(=O)CSc1nnc(-c2ccco2)n1CC	inactive
Cc1ccc(NC(=O)Cn2cc(C(=O)c3ccco3)c3ccccc32)cc1C	inconclusive: 14.1 µM [inhibitor, single point]
CC(=O)Nc1ccc(-c2ccnc3c2CC(C)(C(=O)Nc2ccc(Cl)c(C(F)(F)F)c2)O3)cc1 (stereo not drawn)	inconclusive: 17.8 µM [inhibitor, single point]
CN(CC(=O)Nc1ccc(OC(F)(F)F)cc1)C(=O)c1ccc(N2CCCC2=O)cc1	inactive
CCN(CC)C(=O)[C@H]1C[C@H](CC(=O)NCc2ccco2)C(=O)N2CCc3c([nH]c4cc(-c5ccco5)ccc34)[C@]12C	inconclusive: 31.6 µM [inhibitor, single point]
COc1cccc(CNC(=O)Cn2nc(-c3ccc(C)cc3)ccc2=O)c1	inconclusive: 35.5 µM [inhibitor, single point]
Cc1cccc(N2CCN(C(=O)NC3CCCCC3)CC2)c1C	inconclusive: 15.8 µM [inhibitor, partial curve, poor fit]
O=C(CNC(=O)c1cccs1)OCC(=O)c1ccc([N+](=O)[O-])cc1	inactive
Cc1ccc(N(C)C(CNS(=O)(=O)c2ccccc2)c2ccccc2)cc1 (stereo not drawn)	inconclusive: 14.1 µM [inhibitor, single point]
Cc1ccc(-c2nc3ccccc3c(C(=O)NCc3cccs3)c2C)cc1	inconclusive: 7.08 µM [inhibitor, full curve, poor fit]
COc1ccc(S(=O)(=O)Cc2ccc(C(=O)N3CCN(c4cccc(C)c4C)CC3)o2)cc1	inconclusive: 17.8 µM [inhibitor, single point]
Cc1ccc(-c2csc(NC(=O)COc3ccc(N(C)S(=O)(=O)c4ccc(C)cc4)cc3)n2)cc1	inconclusive: 7.08 µM [inhibitor, partial curve]
